# Several values for one entry are separate records, joined by “and”; a condition that tells them apart may be missing. Identical values can stand only once. This list was built around the results that the source calls inconclusive (neither active nor inactive); the mix of calls is not that of the screen. Where the call is inconclusive, the potency comes from a doubtful curve fit. Some structures have more than one record in an assay (separate samples or runs), and their calls can disagree. Activity calls are given as the source filed them. Unless noted, calls follow the shape of the dose curve; as a rule, active = well fitted curve in the direction sought with a large enough effect in the repeat runs; inconclusive = weak or mixed curves; inactive = no such curve, though single readings can be large; an effect the other way counts as inactive or inconclusive.
# Columns and labels:
# [1] = qHTS assay to identify small molecule antagonists of the androgen receptor (AR) signaling pathway - cell viability counter screen (AID 743033; also: nearly all actives have a fitted effect of over 45% in size)
# [2] = target: Androgen receptor (Homo sapiens) (UniProt P10275); experiment: qHTS assay to identify small molecule antagonists of the androgen receptor (AR) signaling pathway (AID 743035; active = well fitted inhibition curve with a large enough effect in the signal ratio in the repeat runs, not every such curve was filed as active; inconclusive = weak or mixed curves, or effect the other way; inactive = no such curve, though single readings can be large or run the other way; the % refers to the signal ratio); conditions: HEK293 AR-UAS-bla, R1881-stimulated, beta-lactamase FRET, 16 h; activity change, negative = inhibition: at 58.5 µM (top of the series) unless noted
# UniProt P10275, sequence (P10275 whole entry, looked up): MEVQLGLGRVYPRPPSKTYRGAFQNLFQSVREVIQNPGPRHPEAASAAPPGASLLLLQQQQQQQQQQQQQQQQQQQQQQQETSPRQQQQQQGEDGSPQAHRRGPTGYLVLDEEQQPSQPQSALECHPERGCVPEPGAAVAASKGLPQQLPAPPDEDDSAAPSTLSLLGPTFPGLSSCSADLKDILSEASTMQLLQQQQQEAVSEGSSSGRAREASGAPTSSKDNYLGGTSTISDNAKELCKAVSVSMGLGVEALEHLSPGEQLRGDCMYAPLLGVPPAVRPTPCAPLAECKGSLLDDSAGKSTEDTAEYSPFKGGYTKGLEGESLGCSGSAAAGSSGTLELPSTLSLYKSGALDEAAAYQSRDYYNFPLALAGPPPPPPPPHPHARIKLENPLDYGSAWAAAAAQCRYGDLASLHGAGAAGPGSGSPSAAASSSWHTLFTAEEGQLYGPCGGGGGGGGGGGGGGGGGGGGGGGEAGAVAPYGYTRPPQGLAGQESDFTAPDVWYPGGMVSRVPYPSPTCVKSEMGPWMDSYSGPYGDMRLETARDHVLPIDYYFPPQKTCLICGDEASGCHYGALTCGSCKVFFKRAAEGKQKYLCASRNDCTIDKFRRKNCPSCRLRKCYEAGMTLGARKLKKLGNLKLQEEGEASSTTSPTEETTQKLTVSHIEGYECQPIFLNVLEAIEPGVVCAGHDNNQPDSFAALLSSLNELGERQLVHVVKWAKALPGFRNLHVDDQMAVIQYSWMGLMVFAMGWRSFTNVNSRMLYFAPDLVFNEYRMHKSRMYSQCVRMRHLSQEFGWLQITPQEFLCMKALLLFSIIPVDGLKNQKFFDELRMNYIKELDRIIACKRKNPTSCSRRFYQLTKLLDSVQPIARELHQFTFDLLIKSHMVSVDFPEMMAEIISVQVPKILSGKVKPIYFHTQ
# Procedure, shortened: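 Cell line: GeneBLAzer AR-UAS-bla GripTite (HEK293). Stimulus: R1881 added after compound. Exposure: 16 h, 37C, 5% CO2. Readout: LiveBLAzer B/G FRET fluorescence after 2 h at room temperature.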
# [3] = qHTS assay to identify small molecule antagonists of the androgen receptor (AR) signaling pathway using the MDA cell line - cell viability counter screen (AID 743041; also: nearly all actives have a fitted effect of over 45% in size; as to viability change, negative = cytotoxic: % is scaled to controls: 0 for no effect and ±100 for the full control effect); conditions: MDA-kb2 viability, CellTiter-Fluor, 16 h, cells co-treated with R1881 androgen agonist; viability change, negative = cytotoxic: at 70.3 µM (top of the series) unless noted
# Procedure, shortened: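 MDA-kb2 AR-luc human breast carcinoma cells (MMTV-luciferase, AR/GR responsive) were treated with compounds plus R1881 agonist for 16 h at 37 °C. Viability was read as CellTiter-Fluor fluorescence in the same wells as the reporter assay.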
# [4] = target: Androgen receptor (Homo sapiens) (UniProt P10275); experiment: qHTS assay to identify small molecule antagonists of the androgen receptor (AR) signaling pathway using the MDA cell line (AID 743042; also: nearly all actives have a fitted effect of over 55% in size)
# Procedure, shortened: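 MDA-kb2 cells (human breast carcinoma, stably carrying an MMTV-luciferase reporter responsive to AR and GR) were plated at 3,000 cells/well and preincubated 5 hr at 37C, then given compound plus R1881 agonist for 16 h. ONE-Glo luminescence was read.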
# [5] = qHTS assay to identify small molecule antagonists of the thyroid receptor (TR) signaling pathway - cell viability counter screen (AID 743064); conditions: GH3.TRE-Luc viability, CellTiter-Fluor, 24 h; activity change, negative = cytotoxic: at 70.3 µM (top of the series) unless noted; also: nearly all actives have a fitted effect of over 50% in size
# Procedure, shortened: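 Viability of T3-stimulated (1 nM final) GH3.TRE-Luc cells is measured by CellTiter-Fluor fluorescence after 23.5 h compound exposure at 37 °C plus 30 min reagent incubation.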
# [6] = qHTS assay to identify small molecule antagonists of the thyroid receptor (TR) signaling pathway (AID 743065); also: nearly all actives have a fitted effect of over 55% in size
# Procedure, shortened: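 GH3.TRE-Luc rat pituitary cells carrying two TR response elements driving luciferase were plated for 4 h, given compound plus 1 nM T3 (final), and incubated 23.5 h at 37 C. ONE-Glo luminescence measured reporter inhibition; CellTiter-Fluor fluorescence tracked cytotoxicity.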
# [7] = target: Androgen receptor (Homo sapiens) (UniProt P10275); experiment: qHTS assay to identify small molecule agonists of the androgen receptor (AR) signaling pathway (AID 743036; active = well fitted activation curve with a large enough effect in the signal ratio in the repeat runs, with a control signal flat, not every such curve was filed as active; inconclusive = weak or mixed curves, or effect the other way; inactive = no such curve, though single readings can be large or run the other way; the % refers to the signal ratio; as to activation: % is scaled to controls: 0 for no effect and ±100 for the full control effect); conditions: HEK293 AR-UAS-bla GripTite, beta-lactamase FRET ratio, 16 h
# Procedure, shortened: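 Screening used 2,000 AR-bla HEK293 cells per well, treated 16 h at 37C with test compounds in DMSO alongside positive and DMSO-only controls; beta-lactamase activity was then read by LiveBLAzer B/G FRET fluorescence after 2 h at room temperature.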
# [8] = activation: at 62.4 µM (top of the series) unless noted
# Potency is read from the fitted curve at half-maximal effect; tags tell the direction and shape of the fitted curve or compound fluorescence and quenching.
structure (smiles),measurement,setting,value
CCCCCCCCCCCCc1ccccc1O,Potency,[1],active: 24.2 µM and active: 38.9 µM
same,Potency,[2],active: 21.6 µM and inconclusive: 54.9 µM
same,Potency,[3],"inconclusive: 68.6 µM [cytotoxic, single point]"
same,Potency,[4],"inconclusive: 26.9 µM [inhibitor, single point] and active: 54.5 µM"
same,Potency,[5],"inconclusive: 42.7 µM [cytotoxic, single point]"
same,Potency,[6],"inconclusive: 67.7 µM [inhibitor, single point]"
CCN(CC)C(=S)SSC(=S)N(CC)CC,Potency,[1],active: 425 nM and active: 138 nM and active: 100 nM
same,Potency,[7]; [8],"inconclusive: 126 nM [activator, full curve, poor fit]"
same,activation,[7]; [8],inconclusive: 28.4%
same,activation,[7]; at 62.4 µM (top of the series),inactive: 21%
same,Potency,[3],active: 376 nM and active: 243 nM and active: 222 nM
same,Potency,[5],"inconclusive: 47.3 nM [cytotoxic, full curve, poor fit] and inconclusive: 38.6 nM [cytotoxic, full curve, poor fit]"
CCCCCCCCCCCCCC[P+](CCCC)(CCCC)CCCC,Potency,[1],active: 866 nM and active: 977 nM
same,Potency,[7]; [8],"inconclusive: 21.8 µM [cytotoxic, full curve] and inconclusive: 21.9 µM [cytotoxic, full curve]"
same,Potency,[3],active: 21.6 µM and active: 6.11 µM
same,Potency,[4],active: 2.16 µM and active: 1.54 µM
same,Potency,[5],active: 2.16 µM and active: 2.17 µM
CCCCCCCCCCn1cc[n+](CCCCCCCCCC)c1C,Potency,[1],active: 4.37 µM
same,Potency,[2],"inconclusive: 55 µM [falling, single point]"
same,Potency,[7]; [8],"inconclusive: 49000 nM [cytotoxic, partial curve]"
same,Potency,[5],active: 6.87 µM
CCCCc1oc2ccccc2c1C(=O)c1cc(I)c(OCCN(CC)CC)c(I)c1,Potency,[1],"inconclusive: 26.8 µM [cytotoxic, single point]"
same,Potency,[3],"inconclusive: 54.9 µM [cytotoxic, single point]"
same,Potency,[5],active: 13.3 µM and active: 26.6 µM and active: 21.9 µM
CCCCCC(=O)O[C@]1(C(C)=O)CC[C@H]2[C@@H]3CCC4=CC(=O)CC[C@]4(C)[C@H]3CC[C@@]21C,Potency,[1],active: 24.4 µM
same,Potency,[3],"inconclusive: 27.1 µM [cytotoxic, single point]"
same,Potency,[5],"active: 18.8 µM and inconclusive: 24.2 µM [cytotoxic, single point]"
O=Nc1ccc(Nc2ccccc2)cc1,Potency,[1],active: 17.5 µM and active: 30.9 µM
same,Potency,[2],inconclusive: 22 µM and inconclusive: 21.9 µM
same,Potency,[3],active: 61.4 µM and inconclusive: 68.6 µM [cytotoxic]
same,Potency,[4],"inconclusive: 68.6 µM [inhibitor, single point]"
same,Potency,[5],active: 5.48 µM and active: 6.86 µM
CC/C(=C(\c1ccccc1)c1ccc(OCCN(C)C)cc1)c1ccccc1,Potency,[1],active: 15.5 µM [middle of 5 runs]
same,Potency,[3],"inconclusive: 31.2 µM [cytotoxic, single point] and inconclusive: 68.5 µM [cytotoxic, single point]"
Clc1ccccc1C(c1ccccc1)(c1ccccc1)n1ccnc1,Potency,[1],inconclusive: 1.4 nM [cytotoxic] and active: 54.9 µM
same,Potency,[3],"inconclusive: 68.6 µM [cytotoxic, single point]"
same,Potency,[5],active: 8.04 µM and active: 21.7 µM
CCCCCCCCCCCCN1CCCC1=O,Potency,[1],inactive
same,Potency,[3],inactive
same,Potency,[5],"inconclusive: 77 µM [cytotoxic, single point]"
same,Potency,[6],"inconclusive: 68.6 µM [inhibitor, single point]"
CSc1ccc2c(c1)N(CCC1CCCCN1C)c1ccccc1S2 (centres undefined),Potency,[1],active: 23.9 µM and active: 21.8 µM
same,Potency,[3],inconclusive: 68.3 µM [cytotoxic]
same,Potency,[5],active: 7.5 µM and active: 8.6 µM
C=CC(=O)OCC(O)COc1ccccc1 (centres undefined),Potency,[1],"inconclusive: 54.9 µM [cytotoxic, single point]"
same,Potency,[3],"inconclusive: 68.6 µM [cytotoxic, single point]"
CN1CCN(c2ccccc2/C=C2\SCCN(c3ccc(Cl)c(Cl)c3)C2=O)CC1,Potency,[1],"inconclusive: 13.8 µM [cytotoxic, partial curve]"
same,Potency,[3],"inconclusive: 68.6 µM [cytotoxic, single point]"
same,Potency,[5],active: 8.63 µM

# From PubChem BioAssay (Tox21)
